This is one part of the list.
The sequences below were run against T1, MBP-FoxP1dN (Mus musculus, UniProt P58462 326-579) (assay: PD-seq (MBP pull-down with sequencing); 20 mM Tris-HCl pH 7.5, 100 mM NaCl, 1.5 mM MgCl2, 0.4 uM protein, 0.1 uM dsDNA library, 30 min, room temperature, amylose pull-down; high values mean tight binding). Details: protein: recombinant; tags: His6-MBP; chain copies: 2; dsDNA, one strand shown.
T1 sequence: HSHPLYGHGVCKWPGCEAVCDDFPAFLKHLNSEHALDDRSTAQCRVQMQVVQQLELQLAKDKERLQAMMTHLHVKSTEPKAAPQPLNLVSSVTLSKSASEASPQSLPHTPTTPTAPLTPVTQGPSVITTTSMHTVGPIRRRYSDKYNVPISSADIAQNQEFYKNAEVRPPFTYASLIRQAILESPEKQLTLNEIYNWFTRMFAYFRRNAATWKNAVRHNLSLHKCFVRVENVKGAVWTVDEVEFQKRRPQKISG
How it was run: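 Protein and DNA were mixed at 0.4 µM and 0.1 µM and held for 30 min at room temperature in Tris pH 7.5 buffer with NaCl and MgCl2; the protein was a His6-MBP-tagged, N-terminally truncated mouse FoxP3 or FoxP1 fragment from E. coli, and the DNA a Klenow-filled double-stranded degenerate library. Amylose resin captured the complexes, which were washed three times. Binding is read as reads-per-million enrichment of pull-down versus input after Illumina sequencing, with replicates pooled.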
“GATGATTGTTCTCCCAGCTGATGAATTTTACGACTCGAGTAAACAAATTTTCCTAATCTTTCTGTTCAAGCGCCATCTAC” was tested, and the binding signal was 0.85 RPM ratio (pull-down/input).
In the case of “GATGATTGTTCTCCCAGCTGATGAATTAAGTATTTCGAGTAAACAAATTTTCCTAATCTTTCTGTTCAAGCGCCATCTAC”, the binding signal is reported as 1.07 RPM ratio (pull-down/input).
In the case of “GATGATTGTTCTCCCAGCTGATGAATTCAGCTTATCGAGTAAACAAATTTTCCTAATCTTTCTGTTCAAGCGCCATCTAC”, the binding signal is reported as 0.982 RPM ratio (pull-down/input).
With “GATGATTGTTCTCCCAGCTGATGAATTAATGTGCTCGAGTAAACAAATTTTCCTAATCTTTCTGTTCAAGCGCCATCTAC” the binding signal was 0.997 RPM ratio (pull-down/input).
With “GATGATTGTTCTCCCAGCTGATGAATTGTGTTCCTCGAGTAAACAAATTTTCCTAATCTTTCTGTTCAAGCGCCATCTAC” the binding signal was 1.4 RPM ratio (pull-down/input).
In the case of “GATGATTGTTCTCCCAGCTGATGAATTGGCTAAGTCGAGTAAACAAATTTTCCTAATCTTTCTGTTCAAGCGCCATCTAC”, the binding signal is reported as 0.879 RPM ratio (pull-down/input).
“GATGATTGTTCTCCCAGCTGATGAATTAAGTTAATCGAGTAAACAAATTTTCCTAATCTTTCTGTTCAAGCGCCATCTAC” was tested, and the binding signal was 1.08 RPM ratio (pull-down/input).
For “GATGATTGTTCTCCCAGCTGATGAATTCGTACTTTCGAGTAAACAAATTTTCCTAATCTTTCTGTTCAAGCGCCATCTAC”, the binding signal was 0.933 RPM ratio (pull-down/input).
For “GATGATTGTTCTCCCAGCTGATGAATTGGTCGGATCGAGTAAACAAATTTTCCTAATCTTTCTGTTCAAGCGCCATCTAC”, the binding signal was 0.882 RPM ratio (pull-down/input).
In the case of “GATGATTGTTCTCCCAGCTGATGAATTACCGTGCTCGAGTAAACAAATTTTCCTAATCTTTCTGTTCAAGCGCCATCTAC”, the binding signal is reported as 0.964 RPM ratio (pull-down/input).
For “GATGATTGTTCTCCCAGCTGATGAATTGCTTTCTTCGAGTAAACAAATTTTCCTAATCTTTCTGTTCAAGCGCCATCTAC”, the binding signal was 1.26 RPM ratio (pull-down/input).
In the case of “GATGATTGTTCTCCCAGCTGATGAATTCTAAGCATCGAGTAAACAAATTTTCCTAATCTTTCTGTTCAAGCGCCATCTAC”, the binding signal is reported as 1.05 RPM ratio (pull-down/input).
For “GATGATTGTTCTCCCAGCTGATGAATTGGTCGACTCGAGTAAACAAATTTTCCTAATCTTTCTGTTCAAGCGCCATCTAC”, the binding signal was 0.893 RPM ratio (pull-down/input).
With “GATGATTGTTCTCCCAGCTGATGAATTTACTTCATCGAGTAAACAAATTTTCCTAATCTTTCTGTTCAAGCGCCATCTAC” the binding signal was 1.51 RPM ratio (pull-down/input).
With “GATGATTGTTCTCCCAGCTGATGAATTATTGACGTCGAGTAAACAAATTTTCCTAATCTTTCTGTTCAAGCGCCATCTAC” the binding signal was 1.66 RPM ratio (pull-down/input).
For “GATGATTGTTCTCCCAGCTGATGAATTTGGTGTGTCGAGTAAACAAATTTTCCTAATCTTTCTGTTCAAGCGCCATCTAC”, the binding signal was 1 RPM ratio (pull-down/input).
With “GATGATTGTTCTCCCAGCTGATGAATTTTAACTGTCGAGTAAACAAATTTTCCTAATCTTTCTGTTCAAGCGCCATCTAC” the binding signal was 0.899 RPM ratio (pull-down/input).
“GATGATTGTTCTCCCAGCTGATGAATTTGAGTATTCGAGTAAACAAATTTTCCTAATCTTTCTGTTCAAGCGCCATCTAC” was tested, and the binding signal was 0.967 RPM ratio (pull-down/input).
In the case of “GATGATTGTTCTCCCAGCTGATGAATTCTGGACATCGAGTAAACAAATTTTCCTAATCTTTCTGTTCAAGCGCCATCTAC”, the binding signal is reported as 0.937 RPM ratio (pull-down/input).
In the case of “GATGATTGTTCTCCCAGCTGATGAATTCAATGCTTCGAGTAAACAAATTTTCCTAATCTTTCTGTTCAAGCGCCATCTAC”, the binding signal is reported as 0.895 RPM ratio (pull-down/input).
With “GATGATTGTTCTCCCAGCTGATGAATTCGACGCTTCGAGTAAACAAATTTTCCTAATCTTTCTGTTCAAGCGCCATCTAC” the binding signal was 0.866 RPM ratio (pull-down/input).
In the case of “GATGATTGTTCTCCCAGCTGATGAATTAGCTAGCTCGAGTAAACAAATTTTCCTAATCTTTCTGTTCAAGCGCCATCTAC”, the binding signal is reported as 0.828 RPM ratio (pull-down/input).
With “GATGATTGTTCTCCCAGCTGATGAATTTTGAGCTTCGAGTAAACAAATTTTCCTAATCTTTCTGTTCAAGCGCCATCTAC” the binding signal was 0.856 RPM ratio (pull-down/input).
For “GATGATTGTTCTCCCAGCTGATGAATTGGCTATTTCGAGTAAACAAATTTTCCTAATCTTTCTGTTCAAGCGCCATCTAC”, the binding signal was 0.957 RPM ratio (pull-down/input).
In the case of “GATGATTGTTCTCCCAGCTGATGAATTGCAGGCATCGAGTAAACAAATTTTCCTAATCTTTCTGTTCAAGCGCCATCTAC”, the binding signal is reported as 1.19 RPM ratio (pull-down/input).
For “GATGATTGTTCTCCCAGCTGATGAATTTGTAAGTTCGAGTAAACAAATTTTCCTAATCTTTCTGTTCAAGCGCCATCTAC”, the binding signal was 1.07 RPM ratio (pull-down/input).
In the case of “GATGATTGTTCTCCCAGCTGATGAATTAGATACCTCGAGTAAACAAATTTTCCTAATCTTTCTGTTCAAGCGCCATCTAC”, the binding signal is reported as 0.983 RPM ratio (pull-down/input).
With “GATGATTGTTCTCCCAGCTGATGAATTGTGACGATCGAGTAAACAAATTTTCCTAATCTTTCTGTTCAAGCGCCATCTAC” the binding signal was 1.05 RPM ratio (pull-down/input).
For “GATGATTGTTCTCCCAGCTGATGAATTCTTCCCGTCGAGTAAACAAATTTTCCTAATCTTTCTGTTCAAGCGCCATCTAC”, the binding signal was 0.804 RPM ratio (pull-down/input).
In the case of “GATGATTGTTCTCCCAGCTGATGAATTACCCTTTTCGAGTAAACAAATTTTCCTAATCTTTCTGTTCAAGCGCCATCTAC”, the binding signal is reported as 0.912 RPM ratio (pull-down/input).
For “GATGATTGTTCTCCCAGCTGATGAATTGACTGAATCGAGTAAACAAATTTTCCTAATCTTTCTGTTCAAGCGCCATCTAC”, the binding signal was 1.09 RPM ratio (pull-down/input).
In the case of “GATGATTGTTCTCCCAGCTGATGAATTAAAGGACTCGAGTAAACAAATTTTCCTAATCTTTCTGTTCAAGCGCCATCTAC”, the binding signal is reported as 0.814 RPM ratio (pull-down/input).
In the case of “GATGATTGTTCTCCCAGCTGATGAATTCCCAACTTCGAGTAAACAAATTTTCCTAATCTTTCTGTTCAAGCGCCATCTAC”, the binding signal is reported as 0.821 RPM ratio (pull-down/input).
For “GATGATTGTTCTCCCAGCTGATGAATTTCGCAGGTCGAGTAAACAAATTTTCCTAATCTTTCTGTTCAAGCGCCATCTAC”, the binding signal was 0.789 RPM ratio (pull-down/input).
With “GATGATTGTTCTCCCAGCTGATGAATTGCGATATTCGAGTAAACAAATTTTCCTAATCTTTCTGTTCAAGCGCCATCTAC” the binding signal was 1.18 RPM ratio (pull-down/input).
With “GATGATTGTTCTCCCAGCTGATGAATTGCGTGCATCGAGTAAACAAATTTTCCTAATCTTTCTGTTCAAGCGCCATCTAC” the binding signal was 1.33 RPM ratio (pull-down/input).
“GATGATTGTTCTCCCAGCTGATGAATTCTCGCGGTCGAGTAAACAAATTTTCCTAATCTTTCTGTTCAAGCGCCATCTAC” was tested, and the binding signal was 0.872 RPM ratio (pull-down/input).
“GATGATTGTTCTCCCAGCTGATGAATTACGCCTTTCGAGTAAACAAATTTTCCTAATCTTTCTGTTCAAGCGCCATCTAC” was tested, and the binding signal was 0.999 RPM ratio (pull-down/input).
“GATGATTGTTCTCCCAGCTGATGAATTAGCTATGTCGAGTAAACAAATTTTCCTAATCTTTCTGTTCAAGCGCCATCTAC” was tested, and the binding signal was 0.923 RPM ratio (pull-down/input).
With “GATGATTGTTCTCCCAGCTGATGAATTATATTTCTCGAGTAAACAAATTTTCCTAATCTTTCTGTTCAAGCGCCATCTAC” the binding signal was 1.15 RPM ratio (pull-down/input).
